Source: patent US12202887B2, “Eradication of bacterial biofilm using anti-amyloid monoclonal antibodies” (priority 2018, dated 2025)

Test system: Salmonella typhimurium catheter biofilm
Assay: In vivo catheter assay: Salmonella typhimurium colonized catheters inserted into back flanks of mice
Settings: combination: 100 ug ALZ3H3 into lumen + 1 mg/ml ampicillin in drinking water

B1: ALZ.3H3: human monoclonal antibody with pan-amyloid binding activity; heavy chain SEQ ID NO:2, light chain SEQ ID NO:35 (antibody)
VH: MEFGLSWVFLVALLRGVQCQVQLVESGGGVVQPGRSLRLSCAASGFSFSTYGMHWVRQAPGKGLEWVAVISYDGSRKYYADTGKGRFTISRDNSKNTLYLEMNGLRAEDTAVYHCAKDLRRELGFGNRDYHYYGMDAWGQGTTVTVSSASTK
light: LTQPRSVSGSPGQSVTMSCTGTNSDIGGYNYVSWYQQHPGKAPKLMIYDVYKRPSGVPDRFSGSKSGNTASLTISGLQAEDEADYYCCSYAGTNNLIFGGGTKLTVLGQPKAAPSVTLFPPSSEELQANKATLVCLISDFYPGAVTVAWKADSSPVKAGVETTTPSKQSNNKYAASSYLSLTPEQWKSHRSYSCQV
modifications: Chemically Synthesized, ALZ.3H3 Heavy Chain; Chemically Synthesized, ALZ.3H3 Light Chain
With B1 the “Biofilm growth on the catheter” value was “markedly reduced the biofilm growth on the catheter”.
